Measurements taken from US9045526B2 (THE REGENTS OF THE UNIVERSITY OF MICHIGAN, priority 2011, dated 2015).
Numbered stars: 1 amine (or outer) side, 2 acyl side, 3 side chain; on linkers, the order of the positions; unused ones are H or OH. Bridge positions count the residues as written; N and C are the ends. Square brackets hold non-standard residues; d marks the D form. Peptide text beside a SMILES is read from it. Dmt = Cc1cc(O)cc(C)c1C[C@H](N)C(=O)O; dPen = CC(C)(S)[C@@H](N)C(=O)O; Aic = NC1(C(=O)O)Cc2ccccc2C1; CH2CH2 = C(C[*:2])[*:1]

Assays:
[1] = target: DOR (Rattus norvegicus, UniProt P33533); test: DOR | % max.; conditions: 10 µM
[2] = target: KOR (Homo sapiens, UniProt P41145); test: KOR | % max.; conditions: 10 µM
[3] = target: T1, delta-opioid receptor (DOR) (Rattus norvegicus, UniProt P33533); test: Ki, nM | (DOR)
T1 construct: expressed in transfected cells; host or cells: C6 rat glioma cells (C6-DOR), stably transfected
Excerpt: (§1) Table printed on a drawing sheet, FIGURE 4
Head of the field: Ki, nM | (DOR)
(§2) First copying reader's note: Each result cell holds the value together with its ± error.

[4] = target: T2, kappa-opioid receptor (KOR) (Homo sapiens, UniProt P41145); test: Ki, nM | (KOR)
T2 construct: expressed in transfected cells
Excerpt: as §1
Head of the field: Ki, nM | (KOR)
as §2

[5] = target: T3, mu-opioid receptor (MOR) (Rattus norvegicus, UniProt P33535); test: Ki, nM | (MOR)
T3 construct: expressed in transfected cells; host or cells: C6 rat glioma cells (C6-MOR), stably transfected
Excerpt: as §1
Head of the field: Ki, nM | (MOR)
as §2

T1 sequence (P33533 whole entry, looked up): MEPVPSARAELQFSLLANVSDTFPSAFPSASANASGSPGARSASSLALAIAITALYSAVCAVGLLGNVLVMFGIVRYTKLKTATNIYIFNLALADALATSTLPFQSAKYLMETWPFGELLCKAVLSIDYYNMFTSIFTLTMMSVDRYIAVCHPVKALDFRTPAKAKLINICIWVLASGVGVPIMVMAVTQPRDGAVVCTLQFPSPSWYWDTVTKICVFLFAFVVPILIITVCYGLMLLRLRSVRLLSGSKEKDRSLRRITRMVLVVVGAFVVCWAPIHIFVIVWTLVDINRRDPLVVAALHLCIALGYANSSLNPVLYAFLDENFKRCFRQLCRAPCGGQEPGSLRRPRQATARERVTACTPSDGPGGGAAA
T3 sequence (P33535 whole entry, looked up): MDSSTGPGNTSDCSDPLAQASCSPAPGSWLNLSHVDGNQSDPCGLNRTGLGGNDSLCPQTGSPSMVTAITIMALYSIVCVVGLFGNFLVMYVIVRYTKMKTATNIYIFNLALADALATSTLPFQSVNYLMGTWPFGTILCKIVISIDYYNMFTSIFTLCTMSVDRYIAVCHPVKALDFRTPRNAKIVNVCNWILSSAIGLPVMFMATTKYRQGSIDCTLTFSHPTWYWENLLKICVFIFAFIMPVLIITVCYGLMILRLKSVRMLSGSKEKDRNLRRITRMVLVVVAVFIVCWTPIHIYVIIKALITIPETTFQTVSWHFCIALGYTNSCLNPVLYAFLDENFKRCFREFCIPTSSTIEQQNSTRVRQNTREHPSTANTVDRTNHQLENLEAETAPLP
Chain of DOR (P33533 whole entry, looked up): as the sequence (P33533 whole entry, looked up) above
Chain of KOR (P41145 whole entry, looked up): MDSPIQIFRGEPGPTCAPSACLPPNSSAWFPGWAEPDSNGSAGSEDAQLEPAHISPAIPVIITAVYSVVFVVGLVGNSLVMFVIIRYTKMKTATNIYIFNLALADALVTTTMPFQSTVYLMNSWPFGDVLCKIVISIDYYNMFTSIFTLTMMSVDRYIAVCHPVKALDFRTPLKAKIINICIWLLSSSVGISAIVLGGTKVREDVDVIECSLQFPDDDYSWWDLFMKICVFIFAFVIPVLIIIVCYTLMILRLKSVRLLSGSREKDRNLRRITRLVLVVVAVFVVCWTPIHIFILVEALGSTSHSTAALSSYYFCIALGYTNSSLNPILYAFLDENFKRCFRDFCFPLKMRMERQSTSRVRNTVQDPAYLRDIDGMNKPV
T2 sequence (P41145 whole entry, looked up): as above

Structure (SMILES)	DOR | % max. [1] [% max.]	KOR | % max. [2] [% max.]	Ki [3] [nM]	Ki [4] [nM]	Ki [5] [nM]
Cc1cc(O)cc(C)c1C[C@H](N)C(=O)N[C@@H]1CSCCSC(C)(C)[C@H](C(N)=O)NC(=O)C2(Cc3ccccc3C2)NC1=O [compound 1, Dmt-c(S-CH2-CH2-S)-[D-Cys-Aci-D-Pen]NH2] (H-[Dmt][dC][Aic][dPen]-NH2; linker 2-4 via CH2CH2; N-terminus assumed)	37 ± 4	3 ± 3	–	–	–
Cc1cc(O)cc(C)c1C[C@H](N)C(=O)N[C@@H]1CSCCSC(C)(C)[C@H](C(=O)N[C@@H](CO)C(N)=O)NC(=O)C2(Cc3ccccc3C2)NC1=O [VRP-19] (H-[Dmt][dC][Aic][dPen]S-NH2; linker 2-4 via CH2CH2)	–	–	2.7 ± 0.8	174 ± 13.7	1.7 ± 0.8
Cc1cc(O)cc(C)c1C[C@H](N)C(=O)N[C@@H]1CSCCSC(C)(C)[C@H](C(=O)N[C@H](C(=O)O)[C@@H](C)O)NC(=O)C2(Cc3ccccc3C2)NC1=O [VRP-15] (H-[Dmt][dC][Aic][dPen]T-OH; linker 2-4 via CH2CH2; N-terminus assumed)	–	–	6.3 ± 1.2	32700 ± 9800	18 ± 3.9
Cc1cc(O)cc(C)c1C[C@H](N)C(=O)N[C@@H]1CSCCSC(C)(C)[C@H](C(=O)O)NC(=O)C2(Cc3ccccc3C2)NC1=O [compound 2, Dmt-c(S-CH2-CH2-S)-[D-Cys-Aci-D-Pen]OH] (H-[Dmt][dC][Aic][dPen]-OH; linker 2-4 via CH2CH2; N-terminus assumed)	0	0	–	–	–
Cc1cc(O)cc(C)c1C[C@H](N)C(=O)N[C@@H]1CSCCSC(C)(C)[C@H](C(=O)N[C@H](C(N)=O)[C@@H](C)O)NC(=O)C2(Cc3ccccc3C2)NC1=O [VRP-21] (H-[Dmt][dC][Aic][dPen]T-NH2; linker 2-4 via CH2CH2; N-terminus assumed)	–	–	2.7 ± 0.3	–	1.9 ± 0.3
